Some of these densities may be calculated back from excess volumes.
Test: xn = mol fraction of the nth substance listed
Conditions: 101 kPa

Compound: CCCC[n+]1ccn(C)c1.N#C[S-] + CCCCCO
- mass density (298.15 K, x2 = 0): 1069.8 kg/m3
- mass density (298.15 K, x2 = 0.0193): 1067.1 kg/m3
- mass density (298.15 K, x2 = 0.1443): 1048.5 kg/m3
- mass density (298.15 K, x2 = 0.2751): 1026 kg/m3
- mass density (298.15 K, x2 = 0.3843): 1004.4 kg/m3
- mass density (298.15 K, x2 = 0.487): 981.6 kg/m3
- mass density (298.15 K, x2 = 0.5557): 964.7 kg/m3
- mass density (298.15 K, x2 = 0.616): 948.7 kg/m3
- mass density (298.15 K, x2 = 0.7302): 915.1 kg/m3
- mass density (298.15 K, x2 = 0.7914): 895 kg/m3
- mass density (298.15 K, x2 = 0.856): 871.8 kg/m3
- mass density (298.15 K, x2 = 0.9135): 849.3 kg/m3
- mass density (308.15 K, x2 = 0): 1063.9 kg/m3
- mass density (308.15 K, x2 = 0.2751): 1019.9 kg/m3
- mass density (308.15 K, x2 = 0.3843): 998.2 kg/m3
- mass density (308.15 K, x2 = 0.487): 975.3 kg/m3
- mass density (308.15 K, x2 = 0.5557): 958.4 kg/m3
- mass density (308.15 K, x2 = 0.616): 942.2 kg/m3
- mass density (308.15 K, x2 = 0.7302): 908.4 kg/m3
- mass density (308.15 K, x2 = 0.7914): 888.2 kg/m3
- mass density (308.15 K, x2 = 0.856): 864.8 kg/m3
- mass density (308.15 K, x2 = 0.9135): 842.2 kg/m3
- mass density (318.15 K, x2 = 0): 1058 kg/m3
- mass density (318.15 K, x2 = 0.0193): 1055.4 kg/m3
- mass density (318.15 K, x2 = 0.1443): 1036.5 kg/m3
- mass density (318.15 K, x2 = 0.2751): 1013.9 kg/m3
- mass density (318.15 K, x2 = 0.3843): 992.1 kg/m3
- mass density (318.15 K, x2 = 0.487): 969.1 kg/m3
- mass density (318.15 K, x2 = 0.616): 935.8 kg/m3
- mass density (318.15 K, x2 = 0.7302): 901.8 kg/m3
- mass density (318.15 K, x2 = 0.7914): 881.4 kg/m3
- mass density (318.15 K, x2 = 0.856): 857.8 kg/m3
- mass density (318.15 K, x2 = 0.9135): 835.1 kg/m3
- mass density (328.15 K, x2 = 0): 1052.2 kg/m3
- mass density (328.15 K, x2 = 0.0193): 1049.5 kg/m3
- mass density (328.15 K, x2 = 0.1443): 1030.6 kg/m3
- mass density (328.15 K, x2 = 0.2751): 1007.9 kg/m3
- mass density (328.15 K, x2 = 0.3843): 986 kg/m3
- mass density (328.15 K, x2 = 0.487): 962.8 kg/m3
- mass density (328.15 K, x2 = 0.5557): 945.7 kg/m3
- mass density (328.15 K, x2 = 0.616): 929.4 kg/m3
- mass density (328.15 K, x2 = 0.7914): 874.6 kg/m3
- mass density (328.15 K, x2 = 0.856): 850.8 kg/m3
- mass density (328.15 K, x2 = 0.9135): 827.8 kg/m3
- mass density (338.15 K, x2 = 0.0193): 1043.7 kg/m3
- mass density (338.15 K, x2 = 0.1443): 1024.8 kg/m3
- mass density (338.15 K, x2 = 0.2751): 1002 kg/m3
- mass density (338.15 K, x2 = 0.487): 956.7 kg/m3
- mass density (338.15 K, x2 = 0.5557): 939.4 kg/m3
- mass density (338.15 K, x2 = 0.7302): 888.4 kg/m3
- mass density (338.15 K, x2 = 0.7914): 867.7 kg/m3
- mass density (338.15 K, x2 = 0.856): 843.7 kg/m3
- mass density (338.15 K, x2 = 0.9135): 820.5 kg/m3
- mass density (348.15 K, x2 = 0): 1040.7 kg/m3
- mass density (348.15 K, x2 = 0.0193): 1038 kg/m3
- mass density (348.15 K, x2 = 0.1443): 1019 kg/m3
- mass density (348.15 K, x2 = 0.487): 950.5 kg/m3
- mass density (348.15 K, x2 = 0.5557): 933.1 kg/m3
- mass density (348.15 K, x2 = 0.616): 916.6 kg/m3
- mass density (348.15 K, x2 = 0.7302): 881.7 kg/m3
- mass density (348.15 K, x2 = 0.856): 836.5 kg/m3

Compound: CCCC[n+]1ccn(C)c1.N#C[S-] + CCCCO
- mass density (298.15 K, x2 = 0): 1069.8 kg/m3
- mass density (298.15 K, x2 = 0.0911): 1058.5 kg/m3
- mass density (298.15 K, x2 = 0.3317): 1022 kg/m3
- mass density (298.15 K, x2 = 0.4552): 997.7 kg/m3
- mass density (298.15 K, x2 = 0.6834): 939.2 kg/m3
- mass density (298.15 K, x2 = 0.8487): 880.2 kg/m3
- mass density (298.15 K, x2 = 0.8975): 858.8 kg/m3
- mass density (308.15 K, x2 = 0): 1063.9 kg/m3
- mass density (308.15 K, x2 = 0.0911): 1052.6 kg/m3
- mass density (308.15 K, x2 = 0.2242): 1033.9 kg/m3
- mass density (308.15 K, x2 = 0.3317): 1015.8 kg/m3
- mass density (308.15 K, x2 = 0.4552): 991.4 kg/m3
- mass density (308.15 K, x2 = 0.5596): 967.1 kg/m3
- mass density (308.15 K, x2 = 0.6222): 950.5 kg/m3
- mass density (308.15 K, x2 = 0.79): 896.5 kg/m3
- mass density (308.15 K, x2 = 0.8487): 873.1 kg/m3
- mass density (308.15 K, x2 = 0.8975): 851.6 kg/m3
- mass density (308.15 K, x2 = 0.9738): 813.3 kg/m3
- mass density (318.15 K, x2 = 0): 1058 kg/m3
- mass density (318.15 K, x2 = 0.2242): 1027.9 kg/m3
- mass density (318.15 K, x2 = 0.3317): 1009.7 kg/m3
- mass density (318.15 K, x2 = 0.4552): 985.2 kg/m3
- mass density (318.15 K, x2 = 0.79): 889.5 kg/m3
- mass density (318.15 K, x2 = 0.8487): 866 kg/m3
- mass density (318.15 K, x2 = 0.8975): 844.3 kg/m3
- mass density (328.15 K, x2 = 0): 1052.2 kg/m3
- mass density (328.15 K, x2 = 0.0911): 1040.8 kg/m3
- mass density (328.15 K, x2 = 0.2242): 1022 kg/m3
- mass density (328.15 K, x2 = 0.3317): 1003.7 kg/m3
- mass density (328.15 K, x2 = 0.5596): 954.4 kg/m3
- mass density (328.15 K, x2 = 0.6222): 937.5 kg/m3
- mass density (328.15 K, x2 = 0.79): 882.6 kg/m3
- mass density (328.15 K, x2 = 0.8487): 858.8 kg/m3
- mass density (328.15 K, x2 = 0.8975): 836.9 kg/m3
- mass density (328.15 K, x2 = 0.9738): 797.8 kg/m3
- mass density (338.15 K, x2 = 0): 1046.4 kg/m3
- mass density (338.15 K, x2 = 0.0911): 1035 kg/m3
- mass density (338.15 K, x2 = 0.2242): 1016.1 kg/m3
- mass density (338.15 K, x2 = 0.3317): 997.7 kg/m3
- mass density (338.15 K, x2 = 0.4552): 972.8 kg/m3
- mass density (338.15 K, x2 = 0.6834): 912.6 kg/m3
- mass density (338.15 K, x2 = 0.79): 875.6 kg/m3
- mass density (338.15 K, x2 = 0.8487): 851.6 kg/m3
- mass density (338.15 K, x2 = 0.8975): 829.4 kg/m3
- mass density (338.15 K, x2 = 0.9738): 789.8 kg/m3
- mass density (348.15 K, x2 = 0): 1040.7 kg/m3
- mass density (348.15 K, x2 = 0.0911): 1029.2 kg/m3
- mass density (348.15 K, x2 = 0.2242): 1010.2 kg/m3
- mass density (348.15 K, x2 = 0.4552): 966.7 kg/m3
- mass density (348.15 K, x2 = 0.5596): 941.7 kg/m3
- mass density (348.15 K, x2 = 0.6222): 924.6 kg/m3
- mass density (348.15 K, x2 = 0.6834): 905.9 kg/m3
- mass density (348.15 K, x2 = 0.79): 868.6 kg/m3
- mass density (348.15 K, x2 = 0.8487): 844.3 kg/m3

From a compilation of properties of binary mixtures (doi:10.1007/s10953-009-9410-7)
